Measurements: the supplement of paper PMC6660600, “Odorant Inhibition in Mosquito Olfaction” (iScience, 2019)
Where a name gives a salt, the structure may show the parent alone. Some of the results follow. Most values come without repeats; read them as rough.

Tested on: CquiOR32-CquiOrco
Assay: current response class (signed ordinal: positive = inward/excitatory, negative = outward/inhibitory) (ordinal score (-3..3)); higher = stronger inward (excitatory) current
Details: 1 mM; holding potential (mV): -80
Method: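 Xenopus oocytes co-expressing Culex quinquefasciatus CquiOR32 with CquiOrco were challenged by two-electrode voltage clamp (holding -80 mV) with a panel of about 200 odorants at 1 mM source dose (2 s stimulus). The response was scored qualitatively: + to +++ for weak to strong inward currents, x to xxx for weak to strong outward (inhibitory, reverse) currents, +/- and x/- for very weak currents (S/N 2-5), and - for no response. Scale: negative = stronger reverse/inhibitory current.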

SMILES | current response class
CCOC(=O)CC [ethyl propionate] | inactive: 0
CCCC(=O)OC/C=C(\C)CCC=C(C)C [geranyl butyrate] | inactive: 0
CC(=O)/C=C/C1=C(C)CCCC1(C)C [β-ionone] | inactive: 0
CC(CC=O)CCCC(C)(C)O (stereo not given) [7-hydroxcitronellal] | inactive: 0
CCCCC1CCC(=O)O1 (stereo not given) [γ-octalactone] | active: 2
CCC(=O)OCCc1ccccc1 [phenethyl propionate] | inactive: 0
CC1=CCC2CC1C2(C)C (stereo not drawn) [α-pinene] | active: -0.5
CC/C=C\CCOC(C)=O [(Z)-3-hexenyl acetate] | active: 1
CC(=O)c1cc(C(C)(C)C)c(O)c(C(C)(C)C)c1 [3,5-di-tert-butyl-4-hydroxyacetophenone] | inactive: 0
CC(=O)CCC=C(C)CCC=C(C)C [geranylacetone] | inactive: 0
CN(C)C [trimethylamine] | inactive: 0
O=C1CCCCC1 [cyclohexanone] | active: 3
CCCCCOC(C)=O [N-pentylacetate] | inactive: 0
CCCCCCCCC=O [nonanal] | inactive: 0
CCCCCCCCOC(C)=O [octyl acetate] | inactive: 0
CCCCC(C)=O [2-hexanone] | inactive: 0
CC(C)C(=O)Oc1ccccc1 [phenyl isobutyrate] | inactive: 0
CC(=O)OC/C=C(\C)CCC=C(C)C [geranyl acetate] | inactive: 0
OC/C=C/c1ccccc1 [cinnamyl alcohol] | inactive: 0
CCOC(C)=O [ethyl acetate] | inactive: 0

SMILES | current response class
CCCCN(CCC(=O)OCC)C(C)=O | active: -1
CCCC/C=C/C=O [(E)-2-heptenal] | inactive: 0
C=CC1(C)CCC(C(C)(C)O)O1 (stereo not given) [linalool oxide] | active: -2
CCCCCC/C=C/C=O [(E)-2-nonenal] | inactive: 0
CC(=O)OCCC(C)CCC=C(C)C (stereo not given) [citronellyl acetate] | inactive: 0
C/C=C(\C)C=O [(E)-2-methyl-2-butenal] | active: 2
Cc1c[nH]c2ccccc12 [skatole] | inactive: 0
Oc1ccccc1 [phenol] | inactive: 0
CC(C)=CCC/C(C)=C/CO [geraniol] | active: -1
CCCC(C)=O [2-pentanone] | active: 1
C=CC(C)(CCC=C(C)C)OC=O (stereo not given) [linalyl formate] | active: -1
Cc1cc(C)cc(O)c1 [3,5-dimethylphenol] | inactive: 0
CCC(C)NC(=O)c1ccccc1C (stereo not given) [N-(sec-butyl)-2-methylbenzamide] | active: -1
CCC(C)COC(=O)C(C)CC (stereo not given) [2-methylbutyl 2-methylbutanoate] | inactive: 0
CCCC(C)O (stereo not given) [2-pentanol] | inactive: 0
CCCCCCCCCCCCCC(=O)OC(C)C [isopropyl myristate] | inactive: 0
CCCCCC/C=C/CO [(E)-2-nonen-1-ol] | inactive: 0
CCCCCCOC(C)=O [hexyl acetate] | inactive: 0
Cc1cccc(O)c1C [2,3-dimethylphenol] | inactive: 0
CCCCCCC=O [heptanal] | inactive: 0
